# Results published in the supplement of paper PMC4166925.
# ± gives the standard deviation of the averaged measurements. In all, about 33,000 sequences were measured (“E-score (dimensionless, -0.5 to 0.5)”: median about -0.049, highest 2% from about 0.37 on). This is one part of the list.
# Tested on: T1, PmTbr T-box DNA-binding domain (GST fusion)
# T1 sequence: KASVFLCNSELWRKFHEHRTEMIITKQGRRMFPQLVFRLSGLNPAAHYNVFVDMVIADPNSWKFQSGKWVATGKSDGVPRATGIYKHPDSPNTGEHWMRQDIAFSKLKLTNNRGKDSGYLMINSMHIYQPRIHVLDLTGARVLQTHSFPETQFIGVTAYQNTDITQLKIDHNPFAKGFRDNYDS
# Assay: PBM E-score of 8-mer (E-score (dimensionless, -0.5 to 0.5)); Tbr is Tbrain of the sea star Patiria miniata (Pm) or the sea urchin Strongylocentrotus purpuratus (Sp); higher = stronger binding preference; most listed sequences are background and not binding sites
# Settings: the construct has about 5 more residues each side
# In short: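 Primer extension turned Universal Agilent oligonucleotide arrays double-stranded. They were incubated with 200 nM protein in PBS (pH 7.5); the protein was a GST-fused Tbr T-box DNA-binding domain expressed in BL21 E. coli at 20 °C and purified on glutathione. Every ungapped 8-mer was scored from the scanned, quantified probe intensities, and the Universal PBM Analysis Suite gave each an enrichment E-score averaged over duplicate arrays.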
row,Sequence,PBM E-score of 8-mer
1,CCTGCTTC,0.0358 ± 0.049
2,CATATGCA,-0.117 ± 0.0065
3,GTGTAGCA,0.197 ± 0.005
4,ACCCAAAG,-0.204 ± 0.037
5,CAAGAGTG,0.154 ± 0.047
6,CGTCAACA,0.311 ± 0.036
7,AGCTTAGA,-0.154 ± 0.011
8,AGGTGATA,0.468 ± 0.0054
9,TACGAAGA,-0.166 ± 0.067
10,AGCTTACT,-0.0866 ± 0.024
11,ACATATTG,0.125 ± 0.012
12,AAGGCAGC,-0.0911 ± 0.044
13,CCAGAAAG,-0.0143 ± 0.017
14,CACCCGGG,0.264 ± 0.0075
15,CAGCAACA,0.131 ± 0.077
16,AGGCACCC,-0.169 ± 0.043
17,CCGGGCAC,-0.218 ± 0.17
18,ATCAATCG,-0.083 ± 0.026
19,CGATGGTC,-0.212 ± 0.0066
20,ATTCGGAG,-0.193 ± 0.037
21,CCTTGTAG,-0.136 ± 0.055
22,CATAATGA,-0.0551 ± 0.045
23,GGGCCCGA,-0.274 ± 0.034
24,CTCTCAAG,0.0215 ± 0.041

row,Sequence,PBM E-score of 8-mer
1,ATTGTGCA,-0.0224 ± 0.024
2,GAAGTCAC,-0.0383 ± 0.0022
3,AGCTCTTC,-0.189 ± 0.021
4,ATCGACTG,-0.192 ± 0.069
5,TATTTACA,-0.0373 ± 0.021
6,CTCCCCCC,-0.271 ± 0.022
7,CTTTTCGC,0.273 ± 0.015
8,TCAAAACA,-0.0131 ± 0.0092
9,TCCGACAA,0.118 ± 0.0045
10,CCTGCCAC,0.221 ± 0.0026
11,TATAAGAA,-0.028 ± 0.13
12,CGGGTGAG,0.266 ± 0.018
13,AATTTGTC,0.284 ± 0.0037
14,ATGCTCTA,-0.371 ± 0.026
15,CTTATAAG,-0.0602 ± 0.076
16,GAATGAAA,-0.143 ± 0.032
17,ACTAGATG,-0.0461 ± 0.043
18,CGGTGTCA,0.4 ± 0.012
19,AACACTCC,0.288 ± 0.029
20,AAAGCTCC,-0.321 ± 0.059
21,AACGGGTG,0.199 ± 0.049
22,CCCCGGCG,-0.181 ± 0.037
23,ACCCGCTG,0.153 ± 0.016
24,CTCCGACC,-0.166 ± 0.0073

row,Sequence,PBM E-score of 8-mer
1,AGCTAAGC,-0.0834 ± 0.0098
2,CAACTCCG,0.0281 ± 0.032
3,ATCCGCAA,0.002 ± 0.083
4,AACGTAGA,-0.304 ± 0.058
5,CTCTTGCC,-0.00238 ± 0.0026
6,AAACGGGC,-0.228 ± 0.087
7,TCACTCAA,0.0445 ± 0.019
8,ATATTTCG,0.198 ± 0.047
9,AAGTATGC,0.008 ± 0.011
10,GCTTACCC,-0.074 ± 0.084
11,ATGCCGTC,-0.114 ± 0.059
12,GCTTAATA,-0.138 ± 0.019
13,ATGGTCTG,-0.133 ± 0.075
14,CATTCGAA,-0.124 ± 0.0043
15,ATTCGTTG,-0.0949 ± 0.043
16,GATGTAAC,0.00732 ± 0.00069
17,GATGGGAC,-0.141 ± 0.059
18,AAATTCCG,0.0152 ± 0.11
19,TGCCGGAA,0.0789 ± 0.029
20,GATCCACA,0.0954 ± 0.011
21,GCTGTTTA,-0.0135 ± 0.078
22,TCACACCA,0.48075 ± 0.00012
23,GACGACTA,0.0252 ± 0.035
24,ACACTATC,0.3271 ± 0.0028

row,Sequence,PBM E-score of 8-mer
1,AGCCGGTC,-0.275 ± 0.052
2,CCTCTCCA,-0.0419 ± 0.03
3,CAGAATGC,-0.0605 ± 0.12
4,CGTCTTCA,-0.00878 ± 0.0017
5,ACGGGTGA,0.13 ± 0.0046
6,GCCCACGC,-0.153 ± 0.034
7,ACGAGTCA,0.0181 ± 0.0023
8,AAATGTAC,-0.156 ± 0.053
9,CATAATTC,0.0106 ± 0.07
10,TAAACTAA,-0.035 ± 0.025
11,CGAAGAAA,-0.00252 ± 0.047
12,AGTGATCC,-0.134 ± 0.014
13,CCGGGAGA,0.018 ± 0.013
14,GTCTTAAC,-0.147 ± 0.066
15,CAATTTAC,0.0778 ± 0.034
16,CCCCAGTA,-0.146 ± 0.034
17,ATAGGCTC,-0.224 ± 0.015
18,CCAAGAGC,-0.212 ± 0.044
19,CCGAAACG,0.0417 ± 0.074
20,CGTAGTGC,-0.0466 ± 0.03
21,GATATGCC,-0.14 ± 0.1
22,CGAGAACA,0.2 ± 0.0064
